No constants are given. Whether binding was seen depends on the method and setting. In cells and extracts the contact can be indirect. Some results given as binding are weak or reduced against the parent protein; the word gives no strength.
Columns and labels:
[1] = biological target: T1, GAD-PIF3, in vitro translated (Arabidopsis) (UniProt O80536); test: co-IP; in vitro co-immunoprecipitation; both proteins in vitro translated with 35S-met; GAD-PIF3 (or another PIF) as bait, phyB Pfr as prey
T1 sequence (chain, 35S-methionine labelled): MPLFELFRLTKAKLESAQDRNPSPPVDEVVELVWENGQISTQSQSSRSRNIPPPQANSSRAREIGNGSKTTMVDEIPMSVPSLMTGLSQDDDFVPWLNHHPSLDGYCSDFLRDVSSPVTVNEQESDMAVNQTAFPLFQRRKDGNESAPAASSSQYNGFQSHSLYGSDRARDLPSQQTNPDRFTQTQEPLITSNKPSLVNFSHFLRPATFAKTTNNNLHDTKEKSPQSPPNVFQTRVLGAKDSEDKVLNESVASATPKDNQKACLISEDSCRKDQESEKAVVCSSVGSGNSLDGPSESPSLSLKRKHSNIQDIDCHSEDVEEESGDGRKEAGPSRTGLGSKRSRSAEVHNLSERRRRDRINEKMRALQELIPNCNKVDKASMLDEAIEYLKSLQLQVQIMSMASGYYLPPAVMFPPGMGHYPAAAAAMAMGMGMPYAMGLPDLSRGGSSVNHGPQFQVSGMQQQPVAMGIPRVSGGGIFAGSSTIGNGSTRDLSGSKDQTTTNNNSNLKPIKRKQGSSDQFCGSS

The chains behind the UniProt entries cited, without tags or fusion partners. Where a name states a change or a piece, a line headed by the entry shows the natural chain unless it says otherwise.
UniProt P14713: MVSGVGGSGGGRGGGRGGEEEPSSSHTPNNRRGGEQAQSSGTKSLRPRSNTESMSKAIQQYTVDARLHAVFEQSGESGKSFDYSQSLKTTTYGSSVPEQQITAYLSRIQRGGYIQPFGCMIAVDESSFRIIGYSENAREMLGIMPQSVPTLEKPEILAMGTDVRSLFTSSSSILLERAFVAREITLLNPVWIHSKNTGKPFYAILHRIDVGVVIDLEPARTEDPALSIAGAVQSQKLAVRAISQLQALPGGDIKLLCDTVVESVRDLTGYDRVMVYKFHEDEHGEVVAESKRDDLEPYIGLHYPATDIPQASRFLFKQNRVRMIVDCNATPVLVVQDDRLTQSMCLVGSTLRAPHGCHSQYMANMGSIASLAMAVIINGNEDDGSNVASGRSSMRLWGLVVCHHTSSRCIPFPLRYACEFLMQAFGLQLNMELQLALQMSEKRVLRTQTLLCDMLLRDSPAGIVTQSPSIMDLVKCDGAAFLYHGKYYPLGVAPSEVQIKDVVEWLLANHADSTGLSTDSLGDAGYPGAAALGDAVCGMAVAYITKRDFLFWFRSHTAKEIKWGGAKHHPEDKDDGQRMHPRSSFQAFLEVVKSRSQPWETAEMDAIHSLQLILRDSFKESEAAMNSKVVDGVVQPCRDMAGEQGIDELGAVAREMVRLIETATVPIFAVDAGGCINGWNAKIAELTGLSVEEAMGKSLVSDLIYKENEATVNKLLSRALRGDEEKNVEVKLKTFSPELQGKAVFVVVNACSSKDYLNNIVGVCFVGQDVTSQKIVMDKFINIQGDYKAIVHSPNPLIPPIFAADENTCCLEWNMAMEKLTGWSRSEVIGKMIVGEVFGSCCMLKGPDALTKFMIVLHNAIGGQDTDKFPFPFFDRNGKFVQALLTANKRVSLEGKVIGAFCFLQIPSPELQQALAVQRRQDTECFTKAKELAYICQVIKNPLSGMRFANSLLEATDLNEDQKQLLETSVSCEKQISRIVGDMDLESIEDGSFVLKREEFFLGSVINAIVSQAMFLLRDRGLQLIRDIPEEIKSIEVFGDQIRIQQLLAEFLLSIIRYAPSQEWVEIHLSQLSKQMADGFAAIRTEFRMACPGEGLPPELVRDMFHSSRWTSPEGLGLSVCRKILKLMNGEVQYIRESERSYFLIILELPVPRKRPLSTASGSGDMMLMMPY

[2] = biological target: T2, PIF5, in vitro translated (Arabidopsis) (UniProt Q84LH8); test: as above
T2 sequence: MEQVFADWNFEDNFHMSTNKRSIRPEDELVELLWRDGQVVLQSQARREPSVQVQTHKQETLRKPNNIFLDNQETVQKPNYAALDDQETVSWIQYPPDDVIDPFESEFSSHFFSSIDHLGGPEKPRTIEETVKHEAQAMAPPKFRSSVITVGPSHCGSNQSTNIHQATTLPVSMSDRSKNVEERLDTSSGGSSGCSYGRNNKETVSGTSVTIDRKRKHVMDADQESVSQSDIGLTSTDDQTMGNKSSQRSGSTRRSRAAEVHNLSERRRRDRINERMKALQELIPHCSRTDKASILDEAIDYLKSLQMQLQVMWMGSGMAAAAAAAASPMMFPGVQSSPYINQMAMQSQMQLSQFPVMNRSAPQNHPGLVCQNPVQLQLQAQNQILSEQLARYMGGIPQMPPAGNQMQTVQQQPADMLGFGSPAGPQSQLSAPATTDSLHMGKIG

[3] = biological target: T3, PIF1, in vitro translated (Arabidopsis) (UniProt Q8GZM7); test: as above
T3 sequence: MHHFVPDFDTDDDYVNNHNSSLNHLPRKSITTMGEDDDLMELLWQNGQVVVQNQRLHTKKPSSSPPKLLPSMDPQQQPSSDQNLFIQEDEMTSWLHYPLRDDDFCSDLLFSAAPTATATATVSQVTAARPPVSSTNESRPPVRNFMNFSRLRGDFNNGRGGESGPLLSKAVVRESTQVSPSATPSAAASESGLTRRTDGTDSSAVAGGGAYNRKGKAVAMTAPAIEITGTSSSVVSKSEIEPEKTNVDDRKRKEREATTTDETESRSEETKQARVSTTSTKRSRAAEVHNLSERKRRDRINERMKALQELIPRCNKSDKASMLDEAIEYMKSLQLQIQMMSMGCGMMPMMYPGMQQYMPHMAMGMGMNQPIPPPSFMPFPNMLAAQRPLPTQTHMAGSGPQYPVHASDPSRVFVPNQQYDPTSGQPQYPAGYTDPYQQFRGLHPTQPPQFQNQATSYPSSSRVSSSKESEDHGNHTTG

[4] = biological target: T4, PIF7, in vitro translated (Arabidopsis) (UniProt Q570R7); test: as above
T4 sequence: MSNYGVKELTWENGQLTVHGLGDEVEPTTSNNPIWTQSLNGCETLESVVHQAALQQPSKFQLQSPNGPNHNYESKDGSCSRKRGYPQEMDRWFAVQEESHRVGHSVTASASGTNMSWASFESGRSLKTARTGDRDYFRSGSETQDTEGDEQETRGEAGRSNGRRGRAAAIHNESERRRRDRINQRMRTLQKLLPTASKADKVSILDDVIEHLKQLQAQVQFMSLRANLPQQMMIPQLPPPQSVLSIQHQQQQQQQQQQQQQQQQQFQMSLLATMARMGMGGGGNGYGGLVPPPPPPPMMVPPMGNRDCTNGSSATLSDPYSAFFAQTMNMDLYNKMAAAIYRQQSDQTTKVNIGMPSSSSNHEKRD

[5] = biological target: T5, PIF4, in vitro translated (Arabidopsis) (UniProt Q8W2F3); test: as above
T5 sequence: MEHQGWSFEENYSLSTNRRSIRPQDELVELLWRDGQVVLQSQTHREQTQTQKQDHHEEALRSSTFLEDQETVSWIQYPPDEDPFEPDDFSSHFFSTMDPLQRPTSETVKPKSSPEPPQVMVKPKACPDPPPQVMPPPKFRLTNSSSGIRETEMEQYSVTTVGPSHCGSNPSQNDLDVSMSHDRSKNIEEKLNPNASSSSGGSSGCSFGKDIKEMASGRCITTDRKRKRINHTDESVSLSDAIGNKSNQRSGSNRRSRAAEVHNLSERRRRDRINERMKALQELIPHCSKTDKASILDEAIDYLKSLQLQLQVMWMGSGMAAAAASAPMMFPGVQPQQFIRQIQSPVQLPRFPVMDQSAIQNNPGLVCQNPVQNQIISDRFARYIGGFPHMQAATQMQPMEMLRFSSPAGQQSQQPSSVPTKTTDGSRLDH

[6] = biological target: T1, GAD-PIF3, in vitro translated (Arabidopsis); test: co-IP; in vitro co-immunoprecipitation; both proteins in vitro translated with 35S-met; GAD-PIF3 as bait, phyB Pr as prey

Row | binding [1] | binding [2] | binding [3] | binding [4] | binding [5] | binding [6] | Substance
1 | binds weakly | – | – | – | – | – | full-length phyB C345R (from UniProt P14713 1-1172)
2 | binds weakly | – | – | – | – | – | full-length phyB P411L (from UniProt P14713 1-1172)
3 | binds weakly | – | – | – | – | – | full-length phyB S134G (from UniProt P14713 1-1172)
4 | binds | – | – | – | – | – | full-length phyB G112D (from UniProt P14713 1-1172)
5 | binds weakly | – | – | – | – | – | full-length phyB L256C (from UniProt P14713 1-1172)

The remaining lines, values behind:

Row | Substance | binding [1] | binding [2] | binding [3] | binding [4] | binding [5] | binding [6]
6 | full-length phyB S367P (from UniProt P14713 1-1172) | binds weakly | – | – | – | – | –
7 | full-length phyB R352K (from UniProt P14713 1-1172) | – | no binding | no binding | no binding | no binding | –
8 | full-length phytochrome B (phyB), wild type, in vitro translated (from UniProt P14713 1-1172) | binds | binds | binds | binds | binds | no binding (condition: Pr form)
9 | full-length phyB G111D (from UniProt P14713 1-1172) | no binding | no binding | no binding | no binding | no binding | –
